Laboratory results published in the supplement of paper PMC11417369.
± gives the standard deviation of the averaged measurements. The list shows a part of the results.

Each sequence was assayed on PfAP2-EXP AP2 domain (GST-tagged) (assay: gcPBM binding intensity (ln(normalized median fluorescence intensity)); higher = stronger DNA binding).
Method in brief: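 An Agilent 4 × 180k array carrying primer-extended double-stranded 36-bp intergenic genomic probes and negative controls received GST-tagged P. falciparum DNA-binding domains expressed in E. coli, about 25 μg on average, for 1 h. The binding buffer contained 1× PBS, 1% milk, 0.2 mg/ml BSA, 0.5% salmon testes DNA and 0.03% Triton X-100. Binding intensity is the top Masliner-normalised natural-log median intensity across replicate spots of either probe orientation, read after Alexa488 anti-GST antibody staining and a 488 nm scan.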
With “TTATACCTATATTTAACACACATTTGATAAAGTGCC [CACACA_site6732]” the “gcPBM binding intensity (ln)” value was 8.3 ± 0.27. In the case of “TTGTAGGTAAATATGTGTACGCATTATTATTCTTAA [XGTACX_site216]”, the “gcPBM binding intensity (ln)” value is reported as 8.55 ± 0.24. In the case of “AAAAAATTTGTTTATTGTACAGAAAGAATTATTATA [XGTACX_site6549]”, the “gcPBM binding intensity (ln)” value is reported as 8.37 ± 0.39. For “GAGAGAGAAATAAAAAGTACATACATATATATACAT [XGTACX_site2267]”, the “gcPBM binding intensity (ln)” value was 8.49 ± 0.4. In the case of “ACCATTTTTATGTATAAACACACGTACCCGCACTAA [CACACA_site1604]”, the “gcPBM binding intensity (ln)” value is reported as 8.78 ± 0.35. With “AAAAAAAACAGACACATACACACAAAAATGTTATAA [CACACA_site82]” the “gcPBM binding intensity (ln)” value was 8.46 ± 0.49. In the case of “TGGAGATTTTTAAAGACACACAGGTAAGAATAATAA [CACACA_site1582]”, the “gcPBM binding intensity (ln)” value is reported as 8.81 ± 0.46. With “AATATATAAATTGACACACACATATATACCTATATA [CACACA_site4803]” the “gcPBM binding intensity (ln)” value was 8.51 ± 0.37. With “CACAATGGTTTATATACACACTGTTGCAAATTCTTC [CACACA_site5659]” the “gcPBM binding intensity (ln)” value was 8.59 ± 0.61. With “AATATAAACACAAACACACACATATAGATTTATATA [CACACA_site6263]” the “gcPBM binding intensity (ln)” value was 8.55 ± 0.38. With “ATTATGCACGGACACACACACACACCCCTAAAAAAT [CACACA_site5426]” the “gcPBM binding intensity (ln)” value was 9.28 ± 0.25. “TGTTAACCACAAAAATAAAATAAAATAAAAATAATA [XGTACX_negctrl_site535]” was tested, and the “gcPBM binding intensity (ln)” value was 8.38 ± 0.33. With “TATGCTATTATATATGTACACACCAATTTATTTATA [CACACA_site3918]” the “gcPBM binding intensity (ln)” value was 8.79 ± 0.32. For “TTTCCCATAGGAAAAACACACATATATTATAGATAA [CACACA_site7019]”, the “gcPBM binding intensity (ln)” value was 8.24 ± 0.61. In the case of “TGATAAATATTATGTTGTACTTTCTGCCCTTCACAT [XGTACX_site5168]”, the “gcPBM binding intensity (ln)” value is reported as 8.76 ± 0.35. With “TTTTGATGCTTTAAATGTACAAGGGTTCTTATGAAA [XGTACX_site831]” the “gcPBM binding intensity (ln)” value was 8.35 ± 0.4. “GAAAAAAAAAGTTAAGCACACACATGAATAAATAAT [CACACA_site8179]” was tested, and the “gcPBM binding intensity (ln)” value was 8.9 ± 0.47. With “GAGAGAGAAATATGCACACATAAGGGAAATAAATAA [CACACA_site1153]” the “gcPBM binding intensity (ln)” value was 8.77 ± 0.3. “AAAAAAAAAAAATAGAAAAAAAAATAAAATAAAAAA [CACACA_negctrl_site562]” was tested, and the “gcPBM binding intensity (ln)” value was 8.21 ± 0.46. With “TGTATATAATTTATATGTACATATATTTTATTTTGT [XGTACX_site1905]” the “gcPBM binding intensity (ln)” value was 8.56 ± 0.26. For “AAACCAAAAATAACACGTACAAAAATAAAAAGTATA [XGTACX_site4261]”, the “gcPBM binding intensity (ln)” value was 9.04 ± 0.4. “AAAACATATTTTAAAAGTACTTGAAAAAAAATTTTC [XGTACX_site3940]” was tested, and the “gcPBM binding intensity (ln)” value was 8.22 ± 0.25. In the case of “TATATATATATATGTGCACACCAATTGTATGTAATA [CACACA_site3888]”, the “gcPBM binding intensity (ln)” value is reported as 10.1 ± 0.33. With “AATATAAAATCAAGAAATTAAAAAAAAACAGAAAAC [CACACA_negctrl_site1004]” the “gcPBM binding intensity (ln)” value was 8.93 ± 0.49. In the case of “ACAAGATAATAGAGAAGTACTAATAAACATACACAA [XGTACX_site6617]”, the “gcPBM binding intensity (ln)” value is reported as 8.94 ± 0.35. For “TCATAAAAGATTAAGTGTACATGTGCTACTCTTATA [XGTACX_site6255]”, the “gcPBM binding intensity (ln)” value was 8.34 ± 0.25. For “TATGTTCCTTTTTGTTGTACTGAAAAATTATGTTCA [XGTACX_site3981]”, the “gcPBM binding intensity (ln)” value was 8.93 ± 0.23. “ATAATATAAATTAATTTACACACTAATAAATATATA [CACACA_site9259]” was tested, and the “gcPBM binding intensity (ln)” value was 8.43 ± 0.33. In the case of “ATTTTAAATTTATCTGTGCACAGTATTATATAAGCA [GTGCAC_site9806]”, the “gcPBM binding intensity (ln)” value is reported as 8.73 ± 0.3. With “TATATATATATATATAGTACGCACACATAGTTGCAA [XGTACX_site5875]” the “gcPBM binding intensity (ln)” value was 10.1 ± 0.43. In the case of “TATTTTTTATGATTAACACACACACTAATAAAAAAA [CACACA_site9370]”, the “gcPBM binding intensity (ln)” value is reported as 8.71 ± 0.39. With “ATTCTTACTAATATCGCACACACATATGTAGACGGG [CACACA_site88]” the “gcPBM binding intensity (ln)” value was 9.01 ± 0.57. For “AATGAATATATTTATTGTACATATATGAATATTGCA [XGTACX_site8689]”, the “gcPBM binding intensity (ln)” value was 8.69 ± 0.37. For “ATTTTTTTATTTTTGTGTACTTATAAGAATATTAAT [XGTACX_site4850]”, the “gcPBM binding intensity (ln)” value was 8.75 ± 0.34. With “AAAAAAAAAAAAAAAAGTACAAAAAGGAGAAAGATA [XGTACX_site7862]” the “gcPBM binding intensity (ln)” value was 8.9 ± 0.47. In the case of “AGGTTTATAAAAAAAAAAAAAAAAAAAAAAAAAAAA [GTGCAC_negctrl_site113]”, the “gcPBM binding intensity (ln)” value is reported as 7.89 ± 0.33. In the case of “ACCCAGTGTATTCATAGTACACGCTCATATATTATC [XGTACX_site423]”, the “gcPBM binding intensity (ln)” value is reported as 8.69 ± 0.41. In the case of “AATATTTAAAACATATGTACTGAAAAACAATTGGAC [XGTACX_site6360]”, the “gcPBM binding intensity (ln)” value is reported as 9.12 ± 0.38. For “CACAAAGGTCTGAAATTTTAGGGGTGCCTGGGACTA [CACACA_negctrl_site681]”, the “gcPBM binding intensity (ln)” value was 8.28 ± 0.47. “AACAAGTTGCATGGTGCACACATGTATATATATCTA [CACACA_site2548]” was tested, and the “gcPBM binding intensity (ln)” value was 9.21 ± 0.21. “TACAATTTTACTCATAAACACACATATATATGTTAT [CACACA_site9031]” was tested, and the “gcPBM binding intensity (ln)” value was 8.53 ± 0.36. With “AAAATGTATGTAGTCTGTACAAATACTCTATAAATA [XGTACX_site6475]” the “gcPBM binding intensity (ln)” value was 8.4 ± 0.43. With “AATACTATTATTATTGCACACTTATTATCCCTCGGA [CACACA_site4262]” the “gcPBM binding intensity (ln)” value was 8.65 ± 0.28. In the case of TATCCATTTCTTTATGTGCACATTAAATATATTTGT, the “gcPBM binding intensity (ln)” value is reported as 9.205 ± 0.064. In the case of “TATAAAAATATTTCTACACACATTAATATATATATA [CACACA_site1150]”, the “gcPBM binding intensity (ln)” value is reported as 9.49 ± 0.22.
